Source: PubChem BioAssay AID463173 (ICCB-Longwood Screening Facility, Harvard Medical School, 2010)
About 1,700 (3.3%) of roughly 52,000 compounds were called active. Cut-off read from the data, not from the text of the source: active = survival mostly below about 52% (no sharp cut-off); inactive = mostly above about 56%. The list shows a part of the results.

system: Wild type; assay: S. aureus survival, RN4220 and DeltatarO strains – OD600, teichoic acid synthesis inhibitors, primary screen (AID 463173); details: S. aureus RN4220 wild type/DeltatarO growth, OD600, 18 h, hits give low values, screened at 18.75 µg/mL (by protocol)

| SMILES | survival |
| --- | --- |
| Cc1ccc(CNC(=O)Cn2nc(N3CCN(c4ccccc4)CC3)ccc2=O)cc1 | inactive: 55% |
| CCc1ccccc1NC(=O)c1ccc(Cn2nc(N3CCN(c4ccccc4)CC3)ccc2=O)o1 | inactive: 70% |
| Cc1cc(=O)n(Cc2ccccc2)c2c1c(C)nn2-c1ccccc1 | inactive: 72% |
| Cc1ccc(NC(=O)Nc2cn(C)c(=O)c3ccccc23)c(Cl)c1 | inactive: 69% |
| Cc1cccc(N2CCN(C(=O)C3CCN(S(=O)(=O)c4c(C)noc4/C=C/c4ccccc4F)CC3)CC2C)c1 (configuration not stated) | inactive: 74% |
| Cc1ccc2oc(=O)c3cnn(CC(=O)N4CCN(c5ccccc5F)CC4)c3c2c1 | inactive: 92% |
| Cc1nc2c3ccccc3nc(NNC(=O)CCC(=O)N3CCN(c4cc(Cl)ccc4C)CC3)n2n1 | inactive: 89% |
| COCc1cc(C)nc2sc(C(=O)Nc3ccc(C(C)=O)cc3)c(N)c12 | inactive: 96% |
| COc1ccc(OCC(=O)Nc2cccc(C(=O)OCc3cc(=O)n4nc(C)sc4n3)c2)cc1 | inactive: 136% |
| COc1cccc(NC(=O)c2sc3nc(C)c(C(=O)Nc4ccc(C)cc4C)c(-c4ccco4)c3c2N)c1 | inactive: 107% |
| CCc1cccc(NC(=O)CSc2nc3ccccc3nc2N2CCCCC2)c1 | active: -13% |
| CNC(=O)CCCN1C(=O)CCn2nc(-c3cn(C)c4ccccc34)cc21 | inactive: 133% |
| COC(=O)c1ccc2c(=O)n(CCCCCC(=O)N3CCN(c4cc(C)ccc4C)CC3)c(=O)[nH]c2c1 | inactive: 84% |
| CCOC(=O)c1c(NC(=O)/C=C/c2ccc(OCC)cc2)sc(C(C)=O)c1C | inactive: 88% |
| Cc1nn(-c2ccccc2)c2sc(C(=O)Nc3cccc(Cl)c3)cc12 | active: 5% |
| COc1cc2nc(NCCc3ccccc3)n3nc(-c4cccnc4)nc3c2cc1OC | inactive: 122% |
| CCC(=O)N1CCc2cc(CNS(=O)(=O)c3ccc(C(C)C)cc3)ccc21 | inactive: 77% |
| Cc1ccc(C)c(N2CCN(C(=O)CCS(=O)(=O)c3cc(Br)cc4c3N(C(=O)C3CC3)CC4)CC2)c1 | inactive: 80% |
| COc1ccc(CNC(=O)C(Cc2ccccc2)NS(=O)(=O)c2ccc3c(c2)CCN3C(C)=O)cc1 (configuration not stated) | inactive: 127% |
| O=C(CNCc1ccco1)Nc1ccc(Oc2ccccc2)cc1 | inactive: 115% |
| COc1cc(NC(=O)CCc2c(C)nc3c(-c4ccc(F)cc4)c(C)nn3c2C)cc(OC)c1OC | inactive: 146% |
| COc1ccc(C)cc1S(=O)(=O)NCc1ccccc1 | inactive: 104% |

| SMILES | survival |
| --- | --- |
| CCOc1ccc(NC(=O)CC2C(=O)N(c3ccc(OC)cc3)C(=O)N2C2CCCCC2)cc1 (configuration not stated) | inactive: 133% |
| CCCSc1ncc(Cl)c(C(=O)N2CCN(c3cccc(Cl)c3)CC2)n1 | inactive: 82% |
| Cc1ccc2c(C)nc(Nc3nccc(C)n3)nc2c1 | inactive: 110% |
| CCOc1ccc(C(=O)Oc2c(Sc3ccccc3)c(C)nn2C(C)(C)C)cc1OCC | inactive: 61% |
| Cc1nc(SCC(=O)Nc2ccc(C)c(Cl)c2)cc(-c2ccccc2)n1 | inactive: 68% |
| CCc1ccc2occ(CC(=O)Nc3ccc(OC)c(Cl)c3)c2c1 | inactive: 85% |
| COc1ccc(CN(Cc2ccco2)C(=O)COc2ccccc2OC)cc1 | inactive: 82% |
| CC(=O)c1ccc(NC(=O)Nc2sc3nc4n(c(=O)c3c2C)CCC(C)CC4)cc1 (configuration not stated) | inactive: 99% |
| CCc1ccccc1-n1cnc2cc(C(=O)NC3CCCCCC3)ccc21 | inactive: 22% |
| O=C(c1ccc2c(c1)CCN2S(=O)(=O)c1ccccc1)N1CCN(c2ccccc2F)CC1 | inactive: 83% |
| CC(C)c1ccc(CNC(=O)c2ccc(N3CCCC3)c(NC(=O)NCc3ccccc3)c2)cc1 | inactive: 89% |
| COc1ccccc1N1CCN(S(=O)(=O)c2ccc(F)c(C(=O)Nc3ccc(Cl)cc3C(F)(F)F)c2)CC1 | inactive: 134% |
| O=C(Nc1ccccc1Cl)[C@H](CSCc1ccccc1)N1Cc2ccccc2C1=O | inactive: 62% |
| O=C(CN1C(=O)CSc2ccc(S(=O)(=O)N3CCCC3)cc21)NCc1ccccc1Cl | inactive: 95% |
| CC1(C)Cc2ccccc2C(=NCCC(=O)O)N1 | inactive: 100% |
| CSc1ccc(-c2nc3cccc(C)n3c2Nc2ccc3c(c2)OCO3)cc1 | inactive: 88% |
| COc1ccc(-c2nnc(SC(C)C(=O)O)o2)cc1 (configuration not stated) | inactive: 131% |
| COc1ccc(N2C(=O)C(CC(=O)Nc3ccccc3)N(CCC3=CCCCC3)C2=O)cc1 (configuration not stated) | inactive: 81% |
| Cc1[nH]c2ccccc2c1C1(O)C(=O)N(Cc2ccccc2)c2ccc(Cl)cc21 (configuration not stated) | inactive: 28% |
| CC(=O)N1CCCc2cc(S(=O)(=O)N3CCCC(C(=O)NC(C)C)C3)ccc21 (configuration not stated) | inactive: 127% |
| Cc1ccc(OCC(=O)Nc2c(C(=O)c3ccc(Cl)cc3)oc3ccccc23)cc1C | inactive: 129% |
| CCCCNC(=O)CCc1c(C)nc2cc(-c3ccccc3)nn2c1C | inactive: 84% |

| SMILES | survival |
| --- | --- |
| CS(=O)(=O)Nc1ccc(C2=NN(S(C)(=O)=O)C(c3ccc4c(c3)OCO4)C2)cc1 (configuration not stated) | inactive: 100% |
| CC(C)Oc1ccc(CNC(=O)c2sc3ncccc3c2-n2cccc2)cc1 | inactive: 64% |
| COc1ccc(-n2nc(C(=O)Nc3ccc(C(C)=O)cc3)nc2-c2ccccc2)cc1 | inactive: 51% |
| COc1ccc(-c2nnc(SCCOc3ccccc3C)o2)cc1OC | inactive: 85% |
| O=C(COc1ccccc1)N/N=C/c1ccccc1 | inactive: 110% |
| Cc1cc(C(F)F)n2ncc(C(=O)N3CCCCC3)c2n1 | inactive: 111% |
| O=S(=O)(c1ccc(Cl)cc1)c1nc(-c2cccs2)oc1SCc1ccccc1F | inactive: 70% |
| Cc1cn(C)c(CC(=O)Nc2ccc(F)cc2Cl)c1C(=O)O | inactive: 76% |
| Cc1cc(C)cc(OCCSc2nc3ccc(NC(=O)COc4ccccc4)cc3s2)c1 | inactive: 87% |
| Cc1ccc(OCC(=O)Nc2nonc2-c2ccc(Br)cc2)cc1C | inactive: 68% |
| COc1ccc(-c2ccc(NS(=O)(=O)c3cc(C)c(C)cc3C)cc2)nn1 | inactive: 72% |
| CCn1nc(C)c2c(-c3ccccc3)cc(=O)n(C(C)C(=O)Nc3cc(C)ccc3C)c21 (configuration not stated) | inactive: 73% |
| O=C(Nc1nc2c(F)cccc2s1)c1ccc(S(=O)(=O)N2CCCc3ccccc32)cc1 | inactive: 81% |
| CCOC(=O)C(CC)N1CCN(Cc2ccc(F)cc2)C(=O)C1=O (configuration not stated) | inactive: 87% |
| CCn1c(SCC(=O)c2ccc(C)cc2)nnc1C1CC1 | inactive: 95% |
| COc1ccc(N2CCN(C(=O)C(C)n3nc(C)c4sc5ccccc5c4c3=O)CC2)cc1 (configuration not stated) | inactive: 102% |
| CCc1ccc(NC(=O)Cn2nc(SC)c(S(=O)(=O)c3ccc(OC)cc3)c2N)cc1 | inactive: 128% |
| Clc1ccc(CCNC(c2ccc(Cl)cc2)c2nnc(-c3ccccc3)o2)cc1 (configuration not stated) | inactive: 86% |
| CCOC(=O)c1c(NC(=O)C2c3ccccc3Oc3ccccc32)sc2c1CCC(CC)C2 (configuration not stated) | inactive: 65% |
| CCc1ccc(NC(=O)Cn2c(=O)n(CCCC(=O)NCc3ccc4c(c3)OCO4)c(=O)c3ccccc32)cc1 | inactive: 101% |
| CCOC(=O)c1c(S(=O)(=O)N2CCCC(C(=O)N3CCN(c4cc(C)ccc4C)CC3)C2)c(C)n(C)c1C (configuration not stated) | inactive: 72% |
| Cc1ccc2c(c1)N(Cc1cccc(C(F)(F)F)c1)C(=O)C(C)O2 (configuration not stated) | inactive: 107% |

| SMILES | survival |
| --- | --- |
| CCS(=O)(=O)NCC(c1ccco1)N1CCN(c2ccc(F)cc2)CC1 (configuration not stated) | inactive: 82% |
| CC(=O)C1=C(c2cccc([N+](=O)[O-])c2)N(C(C)=O)n2c(nnc2-c2ccc(C)cc2)S1 | inactive: 85% |
| O=S(=O)(c1ccc(-c2cnc(C3CC3)o2)cc1)N1CCN(c2ccccc2F)CC1 | inactive: 85% |
| CN(C)c1ccc(C(=O)N2CCN(c3ccccc3)CC2)cc1 | inactive: 113% |
| COc1cc2c(cc1OC)n(CC(=O)c1ccc(C)cc1C)c(=O)n1nc(CCn3nc(C)cc3C)nc21 | inactive: 74% |
| Cc1nn2c(C)c(C(=O)N3CCN(c4ccc(Cl)cc4)CC3)cnc2c1-c1ccc(F)cc1 | inactive: 72% |
| COc1ccc(NC(=O)c2cc(-c3ccccc3F)no2)cc1 | inactive: 88% |
| Cc1cccc(Nc2sc(C(=O)c3ccc(Cl)cc3)c(N)c2C(N)=O)c1 | inactive: 45% |
| COc1cccc(CNC(=O)Cn2nc(C)c3sc4ccccc4c3c2=O)c1OC | inactive: 94% |
| O=C(NCCCN1CCN(c2cccc(Cl)c2)CC1)c1ccc2nc(Cc3ccccc3)oc2c1 | inactive: 75% |
| CCOc1ccc(C2=CSC3=NCCN23)cc1Cl | inactive: 130% |
| CCn1cc(C(=O)N2CCN(c3cccc(Cl)c3)CC2)c(=O)c2cc(S(=O)(=O)N3CCC(C)CC3)ccc21 | inactive: 96% |
| Cc1ccc2c(=O)cc(CSc3ncn[nH]3)[nH]c2c1C | inactive: 74% |
| CCOC(=O)c1c(C)[nH]c(C)c1S(=O)(=O)N1CCC(C(=O)N2CCN(c3ccc(F)cc3)CC2)CC1 | inactive: 73% |
| Cc1cccc(C)c1OCC(=O)N(Cc1ccco1)Cc1ccco1 | inactive: 81% |
| Cc1ccnc(NS(=O)(=O)c2ccc(NC(=O)c3ccc(C)c(C)c3)cc2)n1 | inactive: 67% |
| C=Cc1ccc(Cn2c(C)c(CNCCc3ccc(OCC)cc3)c(C(=O)O)c2C)cc1 | inactive: 97% |
| Cc1ccc2nc(NC(=O)c3ccc(S(=O)(=O)N4CCC(C)CC4)cc3)sc2c1 | inactive: 74% |
| Cc1ccccc1CN1C(=O)c2ccccc2Sc2ccc(C(=O)NCCc3ccccc3)cc21 | inactive: 95% |
| O/N=C1\CCCCC1C1=CCCCC1 (configuration not stated) | inactive: 111% |
| CCCCNC(=O)c1ccc2c(c1)N=C(CC)c1ccccc1S2 | inactive: 71% |
